Where a name gives a salt, the structure may show the parent alone.
system: MLKL phosphorylation, HT29-L23 human colorectal adenocarcinoma cells; test: cells; settings: read-out: pMLKL HCS Cell Assay (IC50, uM)

Structure (SMILES)	IC50 [µM]
COc1ncc(-c2cc(C(F)(F)F)c3c(N)ncnn23)cc1C(=O)Nc1cnn(CCc2ccccc2)c1 [Example 1786, 5-(4-amino-5-(trifluoromethyl)pyrrolo[2,1-f][1,2,4]triazin-7-yl)-2-methoxy-N-(1-phenethyl-1H-pyrazol-4-yl)nicotinamide]	0.0096
CCc1c(F)cc(-c2cc(C(F)(F)F)c3c(N)ncnn23)cc1C(=O)N[C@@H]1CN(C(=O)CC(C)C)C[C@@H]1F [Example 646, 5-[4-amino-5-(trifluoromethyl)pyrrolo[2,1-f][1,2,4]triazin-7-yl]-2-ethyl-3-fluoro-N-[(3R,4S)-4-fluoro-1-(3-methylbutanoyl)pyrrolidin-3-yl]benzamide]	0.0042
COc1ncc(-c2cc(CN3CCC(F)(F)CC3)c3c(N)ncnn23)cc1C(=O)N[C@@H]1CN(C(=O)c2cc(C)ncc2F)C[C@@H]1F [Example 1259, 5-{4-amino-5-[(4,4-difluoropiperidin-1-yl)methyl]pyrrolo[2,1-f][1,2,4]triazin-7-yl}-N-[(3R,4S)-4-fluoro-1-(5-fluoro-2-methylpyridine-4-carbonyl)pyrrolidin-3-yl]-2-methoxypyridine-3-carboxamide]	0.0016
COc1ncc(-c2cc(CN3CCC(F)(F)CC3)c3c(N)ncnn23)cc1C(=O)N[C@@H]1CN(C(=O)CC(C)C(F)(F)F)C[C@@H]1F (stereo partly drawn) [Example 1258, 5-{4-amino-5-[(4,4-difluoropiperidin-1-yl)methyl]pyrrolo[2,1-f][1,2,4]triazin-7-yl}-N-[(3R,4S)-4-fluoro-1-(4,4,4-trifluoro-3-methylbutanoyl)pyrrolidin-3-yl]-2-methoxypyridine-3-carboxamide]	0.00053
Cc1ccc(-c2cc(C(F)(F)F)c3c(N)ncnn23)cc1C(=O)Nc1cc(C)n(Cc2ccc(F)cc2)n1 [Example 1813, 5-(4-amino-5-(trifluoromethyl)pyrrolo[2,1-f][1,2,4]triazin-7-yl)-N-(1-(4-fluorobenzyl)-5-methyl-1H-pyrazol-3-yl)-2-methylbenzamide]	0.0023
COc1ncc(-c2cc(C(F)(F)F)c3c(N)ncnn23)cc1C(=O)NC1CN(C(C)c2ccc(C(F)(F)F)cc2)C[C@@H]1F (stereo partly drawn) [Example 1391, 5-[4-amino-5-(trifluoromethyl)-pyrrolo[2,1-f][1,2,4]triazin-7-yl]-N-[(3R,4S)-4-fluoro-1-{1-[4-(trifluoromethyl)phenyl]-ethyl}pyrrolidin-3-yl]-2-methoxypyridine-3-carbox-amide]	0.372
Cc1cc(C)c(-c2cc(C(F)(F)F)c3c(N)ncnn23)cc1C(=O)N[C@@H]1CN(C(=O)c2ccc(F)cc2)C[C@@H]1F [Example 538, 5-[4-amino-5-(trifluoromethyl)pyrrolo[2,1-f][1,2,4]triazin-7-yl]-N-[(3R,4S)-4-fluoro-1-(4-fluorobenzoyl)pyrrolidin-3-yl]-2,4-dimethylbenzamide]	0.037
CCC(O)(C(=O)N1C[C@H](F)[C@H](NC(=O)c2cc(-c3cc(C(F)(F)F)c4c(N)ncnn34)c(F)cc2Cl)C1)C(F)(F)F (stereo partly drawn) [Example 880, 5-[4-amino-5-(trifluoromethyl)pyrrolo[2,1-f][1,2,4]triazin-7-yl]-2-chloro-4-fluoro-N-[(3R,4S)-4-fluoro-1-[2-hydroxy-2-(trifluoromethyl)butanoyl]pyrrolidin-3-yl]benzamide]	0.0074
COc1ncc(-c2cc(C(F)(F)F)c3c(N)ncnn23)cc1C(=O)N[C@@H]1CN(S(=O)(=O)Cc2cccc(C)c2)C[C@@H]1F [Example 1473, 5-[4-amino-5-(trifluoromethyl)pyrrolo[2,1-f][1,2,4]triazin-7-yl]-N-[(3R,4S)-4-fluoro-1-[(3-methylphenyl)methanesulfonyl]pyrrolidin-3-yl]-2-methoxypyridine-3-carboxamide]	0.012
CCO/N=C1\CCC(NC(=O)c2cc(-c3cc(C(F)(F)F)c4c(N)ncnn34)cnc2OC)C1 (stereo not shown) [Example 1683, (E)-5-(4-amino-5-(trifluoromethyl)pyrrolo[2,1-f][1,2,4]triazin-7-yl)-N-(3-(ethoxyimino)cyclopentyl)-2-methoxynicotinamide]	0.188
CC(O)(CC(=O)N1C[C@H](F)[C@H](NC(=O)c2cc(-c3cc(C(F)(F)F)c4c(N)ncnn34)cc(F)c2CF)C1)C(F)(F)F (stereo partly drawn) [Example 621, 5-[4-amino-5-(trifluoromethyl)pyrrolo[2,1-f][1,2,4]triazin-7-yl]-3-fluoro-N-[(3R,4S)-4-fluoro-1-(4,4,4-trifluoro-3-hydroxy-3-methylbutanoyl)pyrrolidin-3-yl]-2-(fluoromethyl)benzamide]	0.0016
Cc1ccc(-c2cc(C(F)(F)F)c3c(N)ncnn23)c(F)c1C(=O)N[C@@H]1CN(C(=O)C2CC(F)C2)C[C@@H]1F (stereo partly drawn) [Example 749, 3-[4-amino-5-(trifluoromethyl)pyrrolo[2,1-f][1,2,4]triazin-7-yl]-2-fluoro-N-[(3R,4S)-4-fluoro-1-(3-fluorocyclobutanecarbonyl)pyrrolidin-3-yl]-6-methylbenzamide]	0.0025
COc1ncc(-c2cc(CN3CCC(F)(F)CC3)c3c(N)ncnn23)cc1C(=O)N[C@@H]1CN(C(=O)C(C)C(F)(F)F)C[C@@H]1F (stereo partly drawn) [Example 1266, 5-{4-amino-5-[(4,4-difluoropiperidin-1-yl)methyl]pyrrolo[2,1-f][1,2,4]triazin-7-yl}-N-[(3R,4S)-4-fluoro-1-(3,3,3-trifluoro-2-methylpropanoyl)pyrrolidin-3-yl]-2-methoxypyridine-3-carboxamide]	0.00087
COc1ncc(-c2cc(C(F)(F)F)c3c(N)ncnn23)cc1C(=O)N[C@@H]1CN(C(=O)C(C)C(F)(F)F)C[C@@H]1F (stereo partly drawn) [Example 1225, 5-[4-amino-5-(trifluoromethyl)pyrrolo[2,1-f][1,2,4]triazin-7-yl]-N-[(3R,4S)-4-fluoro-1-(3,3,3-trifluoro-2-methylpropanoyl)pyrrolidin-3-yl]-2-methoxypyridine-3-carboxamide]	0.0088
COc1ncc(-c2cc(CN3CCC(F)(F)CC3)c3c(N)ncnn23)cc1C(=O)N[C@@H]1CN(C(=O)c2c(F)cncc2F)C[C@@H]1F [Example 1243, 5-{4-amino-5-[(4,4-difluoropiperidin-1-yl)methyl]pyrrolo[2,1-f][1,2,4]triazin-7-yl}-N-[(3R,4S)-1-(3,5-difluoropyridine-4-carbonyl)-4-fluoropyrrolidin-3-yl]-2-methoxypyridine-3-carboxamide]	0.00037
COc1cc(C(=O)N[C@@H]2CN(C(=O)CC(C)C)C[C@@H]2F)cc(-c2cc(C(F)(F)F)c3c(N)ncnn23)c1 [Example 589, 3-[4-amino-5-(trifluoromethyl)pyrrolo[2,1-f][1,2,4]triazin-7-yl]-N-[(3R,4S)-4-fluoro-1-(3-methylbutanoyl)pyrrolidin-3-yl]-5-methoxybenzamide]	0.011
COc1ncc(-c2cc(CN3CCC(F)(F)CC3)c3c(N)ncnn23)cc1C(=O)N[C@@H]1CN(C(=O)c2ccc(Cl)cn2)C[C@@H]1F [Example 1257, 5-{4-amino-5-[(4,4-difluoropiperidin-1-yl)methyl]pyrrolo[2,1-f][1,2,4]triazin-7-yl}-N-[(3R,4S)-1-(5-chloropyridine-2-carbonyl)-4-fluoropyrrolidin-3-yl]-2-methoxypyridine-3-carboxamide]	0.056
CCc1c(F)cc(-c2cc(C(F)(F)F)c3c(N)ncnn23)cc1C(=O)N[C@@H]1CN(C(=O)C2CCC(F)(F)CC2)C[C@@H]1F [Example 660, 5-[4-amino-5-(trifluoromethyl)pyrrolo[2,1-f][1,2,4]triazin-7-yl]-N-[(3R,4S)-1-(4,4-difluorocyclohexanecarbonyl)-4-fluoropyrrolidin-3-yl]-2-ethyl-3-fluorobenzamide]	0.0094
Cc1ncc(-c2cc(C(F)(F)F)c3c(N)ncnn23)cc1C(=O)NCCC(O)c1ccccc1 (stereo not shown) [Example 167, 5-[4-amino-5-(trifluoromethyl)pyrrolo[2,1-f][1,2,4]triazin-7-yl]-N-(3-hydroxy-3-phenylpropyl)-2-methylpyridine-3-carboxamide]	0.0093
COc1c(F)cc(-c2cc(C(F)(F)F)c3c(N)ncnn23)cc1C(=O)N[C@@H]1CN(C(=O)[C@@](C)(O)C(F)(F)F)C[C@@H]1F [Example 686, 5-[4-amino-5-(trifluoromethyl)pyrrolo[2,1-f][1,2,4]triazin-7-yl]-3-fluoro-N-[(3R,4S)-4-fluoro-1-[(28)-3,3,3-trifluoro-2-hydroxy-2-methylpropanoyl]pyrrolidin-3-yl]-2-methoxybenzamide]	0.0027
COc1cc(C(=O)N[C@@H]2CN(C(=O)CC(F)(F)F)C[C@@H]2F)cc(-c2cc(C(F)(F)F)c3c(N)ncnn23)c1 [Example 590, 3-[4-amino-5-(trifluoromethyl)pyrrolo[2,1-f][1,2,4]triazin-7-yl]-N-[(3R,4S)-4-fluoro-1-(3,3,3-trifluoropropanoyl)pyrrolidin-3-yl]-5-methoxybenzamide]	0.108
Cc1ncc(-c2cc(C(F)(F)F)c3c(N)ncnn23)cc1C(=O)N1CCCC(C(C)(O)c2ccc(F)cc2)C1 (stereo not shown) [Example 1735, (5-(4-amino-5-(trifluoromethyl)pyrrolo[2,1-f][1,2,4]triazin-7-yl)-2-methylpyridin-3-yl)(3-(1-(4-fluorophenyl)-1-hydroxyethyl)piperidin-1-yl)methanone]	0.251
COc1ncc(-c2cc(C(F)(F)F)c3c(N)ncnn23)cc1C(=O)Nc1cnn(CC(C)(C)C)c1 [Example 48, 5-(4-amino-5-(trifluoromethyl)pyrrolo[2,1-f][1,2,4]triazin-7-yl)-2-methoxy-N-(1-neopentyl-1H-pyrazol-4-yl)nicotinamide]	0.0086
COc1ncc(-c2cc(C(F)(F)F)c3c(N)ncnn23)cc1C(=O)N[C@@H]1CN(C(=O)C2(O)CCCC2)C[C@@H]1F [Example 315, 5-[4-amino-5-(trifluoromethyl)pyrrolo[2,1-f][1,2,4]triazin-7-yl]-N-[(3R,4S)-4-fluoro-1-(1-hydroxycyclopentanecarbonyl)pyrrolidin-3-yl]-2-methoxy-pyridine-3-carboxamide, TFA]	0.019
Nc1ncnn2c(-c3ccc(F)c(C(=O)N[C@@H]4CN(C(=O)C5CCC(F)(F)C5)C[C@@H]4F)c3F)cc(C(F)(F)F)c12 (stereo partly drawn) [Example 733, 3-[4-amino-5-(trifluoromethyl)pyrrolo[2,1-f][1,2,4]triazin-7-yl]-N-[(3R,4S)-1-(3,3-difluorocyclopentanecarbonyl)-4-fluoropyrrolidin-3-yl]-2,6-difluorobenzamide]	0.039

Reference: patent US11618753B2 (priority 2018, dated 2023)
